In a collection of fitness landscapes (doi:10.1126/science.1257360) one finds enrichment ratio data, which are given here for 153 variants.

Some of the results follow.

B1: PhoQ; a variant is named by its letters at X, in order, P23837 (parent)
chain: MKKLLRLFFPLSLRVRFLLATAAVVLVLSLAYGMVALIGYSVSFDKTTFRLLRGESNLFYTLAKWENNKLHVELPENIDKQSPTMTLIYDENGQLLWAQRDVPWLMKMIQPDWLKSNGFHEIEADVNDTSLLLSGDHSIQQQLQEVREDDDDAEMTHSVAVNVYPATSRMPKLTIVVVDTIPVELKSSYMVWSWFIYVLSANLLLVIPLLWVAAWWSLRPIEALAKEVRELEEHNRELLNPATTRELTSLVRNLNRLLKSERERYDKYRTTLTDLTHSLKTPLXXLQXXLRSLRSEKMSVSDAEPVMLEQISRISQQIGYYLHRASMRGGTLLSRELHPVAPLLDNLTSALNKVYQRKGVNISLDISPEISFVGEQNDFVEVMGNVLDNACKYCLEFVEISARQTDEHLYIVVEDDGPGIPLSKREVIFDRGQRVDTLRPGQGVGLAVAREITEQYEGKIVAGESMLGGARMEVIFGRQHSAPKDE

In the assay the parent is B1. Description: enrichment ratio after two sorts for PhoP signalling (ratio (wild type AVST 3.29)); higher = more functional. The conditions noted are these: with PhoP (E. coli).
On to NFRN, for which the enrichment ratio was not above 0.25.
The result for FIFA reads not above 0.25.
Take PMWI: the enrichment ratio is not above 0.25.
The result for GFAV reads not above 0.25.
The result for IKCV reads not above 0.25; that for GCAI, not above 0.25.
The result for YATW reads not above 0.25; that for GNRG, not above 0.25; that for GKVP, not above 0.25.
For VTGT, the enrichment ratio is not above 0.25.
YAYV: the enrichment ratio is not above 0.25.
The result for MSWP reads not above 0.25; that for QASC, 4.41.
The result for TKES reads not above 0.25; that for ARHW, not above 0.25.
The result for VLDA reads not above 0.25; that for RSMM, not above 0.25; that for QKKF, not above 0.25.
As for RLDI, the enrichment ratio is not above 0.25.
Take HQGL: the enrichment ratio is not above 0.25.
The result for SDED reads not above 0.25.
The result for DPCE reads not above 0.25; that for RYGY, not above 0.25; that for MTDG, not above 0.25.
Under QYRM stands not above 0.25; under HHFL, not above 0.25; under KDKP, not above 0.25.
With VAHP, the enrichment ratio was not above 0.25.
Under DFYT stands not above 0.25.
As for MQSI, the enrichment ratio is not above 0.25.
As for KSII, the enrichment ratio was not above 0.25.
Under VDYV stands not above 0.25; under NSGH, not above 0.25; under PWVV, not above 0.25.
Consider IGTY, for which the enrichment ratio is not above 0.25.
Take DGHI: the enrichment ratio was not above 0.25.
As for GVDH, the enrichment ratio is not above 0.25.
Under PLQY stands not above 0.25; under ANCS, 2.95; under AKFQ, not above 0.25.
Consider GKYF, for which the enrichment ratio is not above 0.25.
Take AHFT: the enrichment ratio was not above 0.25.
The result for FMWY reads not above 0.25.
The result for GGSQ reads 2.74; that for LISC, not above 0.25.
Under VMWD stands not above 0.25.
With QHDK, the enrichment ratio was not above 0.25.
The result for LTDW reads not above 0.25; that for QHMS, not above 0.25.
For the variant SAVM, the enrichment ratio is 4.22.
The result for QCVI reads not above 0.25.
For the variant VRGQ, the enrichment ratio is not above 0.25.
For the variant PIRI, the enrichment ratio is not above 0.25.
Turning to IYKE, the enrichment ratio was not above 0.25.
The result for FKTM reads not above 0.25.
Under RPMW stands not above 0.25.
For PDWR, the enrichment ratio was not above 0.25.
The result for YFYH reads not above 0.25; that for AKHN, not above 0.25; that for PFIE, not above 0.25.
Under DVNR stands not above 0.25; under RNHG, not above 0.25.
In the case of HPMQ, the enrichment ratio was not above 0.25.
The result for LKLG reads not above 0.25.
In the case of GTKN, the enrichment ratio was not above 0.25.
The result for FLQD reads not above 0.25.
The result for NFWS reads not above 0.25; that for SVIS, 0.664; that for GNRS, not above 0.25.
Under DCDP stands not above 0.25.
Turning to RTQA, the enrichment ratio was not above 0.25.
The result for YAGM reads not above 0.25.
Under EMLS stands not above 0.25; under WKWL, not above 0.25; under LCAV, 3.29.
For the variant MDTP, the enrichment ratio was not above 0.25.
Under LLFS stands not above 0.25; under GATH, not above 0.25.
Under DQFY stands not above 0.25.
Take SFCV: the enrichment ratio worked out at 0.287.
Under NLCS stands not above 0.25; under RHNF, not above 0.25.
The result for PALK reads not above 0.25; that for KMNI, not above 0.25.
For GNFL, the enrichment ratio was not above 0.25.
Under SNYQ stands not above 0.25; under AALQ, 9.54; under GDGH, not above 0.25.
Under NAMY stands not above 0.25; under FLGP, not above 0.25; under SDGD, not above 0.25.
Under YFRG stands not above 0.25.
Consider RTVG, for which the enrichment ratio was not above 0.25.
For RFEW, the enrichment ratio is not above 0.25.
The result for FMNN reads not above 0.25; that for NNRT, not above 0.25; that for KDWG, not above 0.25.
The result for CCVR reads not above 0.25; that for FKSC, not above 0.25.
The result for ATIP reads not above 0.25; that for KVHS, not above 0.25.
Turning to HQRM, the enrichment ratio is not above 0.25.
Consider PHEQ, for which the enrichment ratio is not above 0.25.
Under QLGG stands not above 0.25.
For WLCA, the enrichment ratio is not above 0.25.
The result for AACT reads 12.4; that for EFDP, not above 0.25.
The result for EQGL reads not above 0.25.
Under GSHA stands not above 0.25.
For the variant NTIF, the enrichment ratio is not above 0.25.
Under LMLT stands not above 0.25; under LTVK, not above 0.25.
The result for ESMR reads not above 0.25.
Under HYWG stands not above 0.25; under RQMP, not above 0.25; under SYLP, not above 0.25.
In the case of GLTF, the enrichment ratio amounted to 6.67.
Under PLCH stands not above 0.25; under TDCI, not above 0.25; under LRPN, not above 0.25.
Under HVVI stands not above 0.25; under PYII, not above 0.25.
The result for ANEP reads not above 0.25.
With PHSC, the enrichment ratio was not above 0.25.
As to LHVK, the enrichment ratio was not above 0.25.
As to TYVG, the enrichment ratio was 0.756.
The result for FGPE reads not above 0.25; that for IYAY, 2.35; that for IQYQ, not above 0.25.
Take QHWQ: the enrichment ratio was not above 0.25.
Consider YGYS, for which the enrichment ratio is not above 0.25.
The result for QNRY reads not above 0.25; that for RYNY, not above 0.25.
Under WTWN stands not above 0.25; under HPTL, not above 0.25.
Under WEYA stands not above 0.25; under SRRE, not above 0.25; under RVSK, not above 0.25.
ETFA: the enrichment ratio was not above 0.25.
The result for PWMF reads not above 0.25; that for WNHY, not above 0.25; that for QPST, not above 0.25.
The result for GFTC reads not above 0.25.
Under HLHK stands not above 0.25.
As for RETD, the enrichment ratio is not above 0.25.
Under FDGF stands not above 0.25; under YSYV, not above 0.25.
As to MSEH, the enrichment ratio was not above 0.25.
Under RHKN stands not above 0.25.
The result for LNAY reads not above 0.25.
The result for DSQF reads not above 0.25; that for VYQS, not above 0.25.
In the case of SHFY, the enrichment ratio is not above 0.25.
